Measured values from the supplement of paper PMC4967469.
A lower IC50 marks a more sensitive line; a fit beyond the top or the lowest dose is shown as a bound at that dose. AUC, from the same fit, is the share of area under the viability curve across the 256-fold dose range; the more sensitive the line, the further below 1. For some assays here: The top dose, if marked as inferred, was calculated from the reported fits.

Tests used:
Experiment in all cases: Viability of human cancer cell lines after 72 h of drug (GDSC screen)
[1] = compound: CCC1=C[C@@H]2CN(C1)Cc1c([nH]c3ccccc13)[C@@](C(=O)OC)(c1cc3c(cc1OC)N(C)[C@H]1[C@@](O)(C(=O)OC)[C@H](OC(C)=O)[C@]4(CC)C=CCN5CC[C@]31[C@@H]54)C2 [Vinorelbine]; settings: top dose 0.064 µM; top dose inferred
Description: (§1)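 Human cancer cell lines in 384-well plates, medium with 10% serum, drug for 72 h over a 256-fold dose range (nine 2-fold or five 4-fold steps up to the top dose). Adherent lines were fixed and stained with the nucleic acid dye Syto60, suspension lines read with resazurin; signal relative to control wells, capped at 0 and 100%. One two-parameter sigmoid per drug and line, fitted in a mixed model over all curves with the slope shared within a line.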

[2] = compound: CNCc1ccc(-c2[nH]c3cc(F)cc4c3c2CCNC4=O)cc1 [AG-014699]; settings: top dose 5 µM; top dose inferred
Description: as §1

[3] = compound: COc1cc2ncnc(Nc3ccc(F)c(Cl)c3)c2cc1OCCCN1CCOCC1 [Gefitinib]; settings: top dose 0.5 µM
Description: as §1

[4] = compound: O=c1cc(N2CCOCC2)oc2c(-c3cccc4c3sc3ccccc34)cccc12 [NU-7441]; settings: top dose 2 µM; top dose inferred
Description: as §1

[5] = compound: C#Cc1cccc(Nc2ncnc3cc(OCCOC)c(OCCOC)cc23)c1 [Erlotinib]; settings: top dose 2 µM
Description: as §1

[6] = compound: N[C@@H](CSC(c1ccccc1)(c1ccccc1)c1ccccc1)C(=O)O [S-Trityl-L-cysteine]; settings: top dose 5.12 µM; top dose inferred
Description: as §1

[7] = compound: N=C(N)NC(=N)NCCc1ccccc1 [Phenformin]; settings: top dose 4000 µM; top dose inferred
Description: as §1

[8] = compound: C=CC(=O)Nc1cc(NC(=O)c2ccc(C)c(NC(=O)c3ccno3)c2)cc(C(F)(F)F)c1 [QL-XI-92]; settings: top dose 10.24 µM; top dose inferred
Description: as §1

[9] = compound: COc1cc2nccc(Oc3ccc(NC(=O)C4(C(=O)Nc5ccc(F)cc5)CC4)cc3)c2cc1OC [XL-184]; settings: top dose 5.12 µM; top dose inferred
Description: as §1

[10] = compound: COc1cc2ncnc(Nc3cc(Br)c(O)c(Br)c3)c2cc1OC [WHI-P97]; settings: top dose 10.24 µM; top dose inferred
Description: as §1

[11] = compound: O=c1cc(CN2CCOCC2)occ1OCCCCCSc1ccnc2cc(C(F)(F)F)ccc12 [EHT 1864]; settings: top dose 10 µM; top dose inferred
Description: as §1

Row | Cell Line | AUC [1] | IC50 [1] | AUC [2] | IC50 [2] | AUC [3] | IC50 [3] | AUC [4] | IC50 [4] | AUC [5] | IC50 [5] | AUC [6] | IC50 [6] | AUC [7] | IC50 [7] | AUC [8] | IC50 [8] | AUC [9] | IC50 [9] | AUC [10] | IC50 [10] | AUC [11] | IC50 [11]
1 | NB(TU)1-10 (neuroblastoma, adherent) | 0.909 | > 0.064 µM | 0.992 | > 5 µM | 0.968 | > 0.5 µM | 0.986 | > 2 µM | 0.991 | > 2 µM | 0.884 | 4.26 µM | 0.993 | > 4000 µM | 0.993 | > 10.2 µM | 0.857 | 3.3 µM | 0.959 | > 10.2 µM | 0.956 | > 10 µM
2 | NCI-H82 (small cell lung carcinoma, suspension) | 0.883 | 0.0626 µM | 0.989 | > 5 µM | 0.97 | > 0.5 µM | 0.974 | > 2 µM | 0.95 | > 2 µM | 0.716 | 1.25 µM | 0.672 | 733 µM | 0.983 | > 10.2 µM | 0.984 | > 5.12 µM | 0.987 | > 10.2 µM | 0.978 | > 10 µM
3 | NCI-H209 (small cell lung carcinoma, suspension) | 0.813 | 0.0376 µM | 0.712 | 1.3 µM | 0.971 | > 0.5 µM | 0.967 | > 2 µM | 0.93 | > 2 µM | 0.867 | > 5.12 µM | 0.975 | > 4000 µM | 0.847 | 8.39 µM | 0.924 | > 5.12 µM | 0.962 | > 10.2 µM | 0.966 | > 10 µM
4 | NCI-H345 (small cell lung carcinoma, suspension) | 0.815 | 0.0376 µM | 0.989 | > 5 µM | 0.99 | > 0.5 µM | 0.99 | > 2 µM | 0.99 | > 2 µM | 0.91 | > 5.12 µM | 0.765 | 1530 µM | 0.976 | > 10.2 µM | 0.964 | > 5.12 µM | 0.99 | > 10.2 µM | 0.983 | > 10 µM
5 | NCI-H720 (lung carcinoid, suspension) | 0.992 | > 0.064 µM | 0.992 | > 5 µM | 0.992 | > 0.5 µM | 0.992 | > 2 µM | 0.992 | > 2 µM | 0.991 | > 5.12 µM | 0.838 | 2390 µM | 0.992 | > 10.2 µM | 0.992 | > 5.12 µM | 0.989 | > 10.2 µM | 0.985 | > 10 µM
6 | NCI-H1770 (non-small cell lung carcinoma, suspension) | 0.556 | 0.00558 µM | 0.992 | > 5 µM | 0.99 | > 0.5 µM | 0.992 | > 2 µM | 0.992 | > 2 µM | 0.934 | > 5.12 µM | 0.498 | 247 µM | 0.992 | > 10.2 µM | 0.966 | > 5.12 µM | 0.992 | > 10.2 µM | 0.99 | > 10 µM
7 | NCI-H1836 (small cell lung carcinoma, suspension) | 0.767 | 0.0262 µM | 0.988 | > 5 µM | 0.985 | > 0.5 µM | 0.988 | > 2 µM | 0.969 | > 2 µM | 0.832 | 3.74 µM | 0.686 | 879 µM | 0.985 | > 10.2 µM | 0.983 | > 5.12 µM | 0.984 | > 10.2 µM | 0.983 | > 10 µM
8 | NCI-H2135 (non-small cell lung carcinoma, adherent) | 0.828 | 0.0377 µM | 0.988 | > 5 µM | 0.991 | > 0.5 µM | 0.991 | > 2 µM | 0.99 | > 2 µM | 0.941 | > 5.12 µM | 0.986 | > 4000 µM | 0.923 | > 10.2 µM | 0.91 | > 5.12 µM | 0.977 | > 10.2 µM | 0.875 | 9.35 µM
9 | NCI-SNU-1 (stomach, suspension) | 0.807 | 0.0343 µM | 0.988 | > 5 µM | 0.985 | > 0.5 µM | 0.974 | > 2 µM | 0.932 | > 2 µM | 0.93 | > 5.12 µM | 0.77 | 1570 µM | 0.932 | > 10.2 µM | 0.884 | > 5.12 µM | 0.927 | > 10.2 µM | 0.861 | 8.95 µM
10 | NCI-SNU-5 (stomach, suspension) | 0.847 | 0.0482 µM | 0.944 | > 5 µM | 0.987 | > 0.5 µM | 0.983 | > 2 µM | 0.987 | > 2 µM | 0.793 | 2.37 µM | 0.748 | 1300 µM | 0.989 | > 10.2 µM | 0.617 | 0.676 µM | 0.989 | > 10.2 µM | 0.982 | > 10 µM
11 | NOMO-1 (acute myeloid leukaemia, suspension) | 0.663 | 0.0122 µM | 0.961 | > 5 µM | 0.927 | > 0.5 µM | 0.836 | 1.6 µM | 0.98 | > 2 µM | 0.725 | 1.54 µM | 0.498 | 246 µM | 0.937 | > 10.2 µM | 0.82 | 3.48 µM | 0.897 | > 10.2 µM | 0.942 | > 10 µM
